Test results from article PMC4336329 (PLoS ONE, 2015).
About 2,200 (0.71%) of roughly 310,000 compounds showed an effect of 50% or more. Effects have a minus sign here. The list shows a part of the results.

What follows are molecules tested against human ether-à-go-go-related gene (hERG) potassium channel (human, UniProt Q12809) (assay: primary screen, population patch clamp on CHO cells stably expressing hERG).
Chain of human ether-à-go-go-related gene (hERG) potassium channel (Q12809 whole entry, looked up): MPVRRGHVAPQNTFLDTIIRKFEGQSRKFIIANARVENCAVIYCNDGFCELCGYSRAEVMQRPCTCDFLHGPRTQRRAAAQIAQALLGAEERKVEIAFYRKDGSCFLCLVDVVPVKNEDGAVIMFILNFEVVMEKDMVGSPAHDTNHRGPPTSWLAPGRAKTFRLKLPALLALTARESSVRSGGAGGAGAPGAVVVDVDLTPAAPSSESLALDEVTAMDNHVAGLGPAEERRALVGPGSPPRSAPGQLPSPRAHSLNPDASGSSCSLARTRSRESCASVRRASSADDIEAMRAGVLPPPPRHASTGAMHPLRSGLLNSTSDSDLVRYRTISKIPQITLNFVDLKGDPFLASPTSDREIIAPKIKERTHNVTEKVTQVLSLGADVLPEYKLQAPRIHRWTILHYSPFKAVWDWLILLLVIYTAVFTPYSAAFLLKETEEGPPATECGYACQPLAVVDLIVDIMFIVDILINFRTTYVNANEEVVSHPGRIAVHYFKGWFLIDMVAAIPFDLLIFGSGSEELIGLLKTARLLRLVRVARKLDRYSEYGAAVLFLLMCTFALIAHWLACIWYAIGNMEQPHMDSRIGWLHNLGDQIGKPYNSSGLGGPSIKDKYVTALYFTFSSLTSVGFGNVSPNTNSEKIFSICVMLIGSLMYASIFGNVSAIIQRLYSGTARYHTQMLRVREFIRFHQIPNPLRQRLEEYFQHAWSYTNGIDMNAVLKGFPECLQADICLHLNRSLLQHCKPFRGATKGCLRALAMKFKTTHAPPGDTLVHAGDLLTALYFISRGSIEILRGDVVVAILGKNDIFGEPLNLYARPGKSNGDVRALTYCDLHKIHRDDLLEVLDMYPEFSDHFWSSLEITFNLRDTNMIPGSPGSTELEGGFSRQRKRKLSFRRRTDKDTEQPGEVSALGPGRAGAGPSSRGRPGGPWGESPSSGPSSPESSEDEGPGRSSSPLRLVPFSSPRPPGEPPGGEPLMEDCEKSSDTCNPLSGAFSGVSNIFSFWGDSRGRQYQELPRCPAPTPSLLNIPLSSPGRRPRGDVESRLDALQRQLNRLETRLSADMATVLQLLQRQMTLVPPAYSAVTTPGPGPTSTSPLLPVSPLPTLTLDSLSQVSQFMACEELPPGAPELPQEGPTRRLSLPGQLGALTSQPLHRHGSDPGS
In the case of Clc1ccc(C(c2nnnn2C2CCCC2)N2CCN(c3nc4ccccc4s3)CC2)cc1 (centres unmarked), the “hERG current change (%, negative = inhibition) at 1uM” value is reported as 17.2%. For CCOc1ccc(-n2c(=S)sc3c(=O)[nH]c(SCC(=O)NCC4CCCO4)nc32)cc1 (centres unmarked), the “hERG current change (%, negative = inhibition) at 1uM” value was 3.06%. COc1ccccc1OCC(=O)Nc1ccc(C(N)=O)cc1 was tested, and the “hERG current change (%, negative = inhibition) at 1uM” value was 15.4%. With CCCn1c(=O)c(C(=O)NCCc2ccc(OC)cc2)c(O)c2ccccc21 the “hERG current change (%, negative = inhibition) at 1uM” value was 11.6%. With Cc1ccc(CNC(=O)CSc2nc3ccccc3[nH]2)cc1 the “hERG current change (%, negative = inhibition) at 1uM” value was 10%. In the case of COCCn1c(SCC(=O)Nc2cccc(NC(C)=O)c2)nc2c([nH]c3ccccc32)c1=O, the “hERG current change (%, negative = inhibition) at 1uM” value is reported as 14.4%. In the case of Cc1ccc(-c2c[n+](=O)c3c(n2[O-])CCC3)cc1, the “hERG current change (%, negative = inhibition) at 1uM” value is reported as 16.5%. With CCc1ccccc1NC(=S)N(Cc1cccc(C)c1)c1cccnc1 the “hERG current change (%, negative = inhibition) at 1uM” value was 21.3%. For Cc1ccc(-n2nnnc2SCC(=O)N2Cc3ccccc3CC2C(=O)O)cc1 (centres unmarked), the “hERG current change (%, negative = inhibition) at 1uM” value was 11.8%. In the case of CNS(=O)(=O)c1cccc(C(=O)NNC(=O)c2ccc(COc3ccccc3)cc2)c1, the “hERG current change (%, negative = inhibition) at 1uM” value is reported as 11.1%. In the case of Cc1cc(C)nc(SCCC(=O)Nc2ccc(F)cc2)n1, the “hERG current change (%, negative = inhibition) at 1uM” value is reported as 11.4%. In the case of O=C(NCCc1ccccc1)c1ccc2c(c1)S(=O)(=O)c1cc(Cl)ccc1C2=O, the “hERG current change (%, negative = inhibition) at 1uM” value is reported as 14.5%. CCOc1ccc(C(C)(O)CN2CCOCC2)cc1 (centres unmarked) was tested, and the “hERG current change (%, negative = inhibition) at 1uM” value was 16.6%. O=C(COC(=O)c1ccccc1Oc1ccccc1)NCc1ccco1 was tested, and the “hERG current change (%, negative = inhibition) at 1uM” value was 10.9%. In the case of O=C(c1ccc(F)cc1)N1CCN(C2=NS(=O)(=O)c3ccccc32)CC1, the “hERG current change (%, negative = inhibition) at 1uM” value is reported as 9.47%. For CC(=O)Nc1ccc(SCc2ncc(-c3ccccc3)o2)cc1, the “hERG current change (%, negative = inhibition) at 1uM” value was 12.7%. For COc1c(F)c(F)c(C(=O)Nc2cccc(Cl)c2N2CCOCC2)c(F)c1F, the “hERG current change (%, negative = inhibition) at 1uM” value was 11.4%. For CCCCNC(=O)c1cc2c(=O)n(CC)c3ccccc3c2s1, the “hERG current change (%, negative = inhibition) at 1uM” value was 13.1%. With CN(Cc1cccnc1)Cc1cn(Cc2ccccc2)nc1-c1ccc2c(c1)OCO2 the “hERG current change (%, negative = inhibition) at 1uM” value was 4.36%. In the case of Cc1cc(C(=O)CN(Cc2ccc(F)cc2)S(=O)(=O)c2ccc3c(c2)OCCO3)c(C)n1C, the “hERG current change (%, negative = inhibition) at 1uM” value is reported as 15.1%. For CCSc1nnc(NC(=O)CSc2nc(C)cc(C)n2)s1, the “hERG current change (%, negative = inhibition) at 1uM” value was -0.119%. COc1ccc([N+](=O)[O-])cc1NC1CCN(C(=O)c2cccs2)CC1 was tested, and the “hERG current change (%, negative = inhibition) at 1uM” value was -27.2%. In the case of O=C(O)C1Cc2ccccc2CN1C(=O)COc1ccc(Cl)cc1 (centres unmarked), the “hERG current change (%, negative = inhibition) at 1uM” value is reported as 3.22%. For O=C(CN1CCN(S(=O)(=O)c2cc(Cl)ccc2Cl)CC1)c1ccc(O)c(O)c1, the “hERG current change (%, negative = inhibition) at 1uM” value was 22.5%. In the case of COc1cc(/C=N/NC(=O)CC2(C)OCCCO2)ccc1OCc1ccccc1, the “hERG current change (%, negative = inhibition) at 1uM” value is reported as 11.7%. With CCCOc1ccc2c(CC)cc(=O)oc2c1C the “hERG current change (%, negative = inhibition) at 1uM” value was 12.3%. In the case of CCCn1c(SCC(=O)NCc2ccc(Cl)cc2)n[nH]c1=O, the “hERG current change (%, negative = inhibition) at 1uM” value is reported as 12.1%. In the case of CCSc1nnc(C)n1-c1ccc(C(=O)O)cc1, the “hERG current change (%, negative = inhibition) at 1uM” value is reported as 9.56%. In the case of Cc1ccc(Cl)cc1N1CCN(C(=O)c2noc(C)c2[N+](=O)[O-])CC1, the “hERG current change (%, negative = inhibition) at 1uM” value is reported as 10.6%. CCCCCn1c(=O)c(C(=O)Nc2ncccc2C)c(O)c2ccccc21 was tested, and the “hERG current change (%, negative = inhibition) at 1uM” value was 12.3%. In the case of Cc1ccc2nc(-c3ccc(N)cc3)sc2c1, the “hERG current change (%, negative = inhibition) at 1uM” value is reported as 13.6%. In the case of CN1CCCCCC1=Nc1ccccc1C#N.O=C(O)C(=O)O, the “hERG current change (%, negative = inhibition) at 1uM” value is reported as 14.4%. Cc1cccc(OCC(O)Cn2c(=N)n(CCN3CCOCC3)c3ccccc32)c1.Cl (centres unmarked) was tested, and the “hERG current change (%, negative = inhibition) at 1uM” value was -8.29%. For COC(=O)Nc1ccc(S(=O)(=O)N2CCCCC2)cc1, the “hERG current change (%, negative = inhibition) at 1uM” value was -0.965%. In the case of Cc1cc(C(=O)Nc2ccc(S(=O)(=O)N3CCOCC3)cc2)c(C)o1, the “hERG current change (%, negative = inhibition) at 1uM” value is reported as 9.36%. With CN1CCOC(=O)/C1=N/Nc1cc(Cl)ccc1Cl the “hERG current change (%, negative = inhibition) at 1uM” value was 7.79%. In the case of Cc1ccc2nc(N/C(=N/S(=O)(=O)c3ccc(F)cc3F)c3ccccc3)sc2c1, the “hERG current change (%, negative = inhibition) at 1uM” value is reported as 15.5%. For C/C(CC(=O)Nc1ccccn1)=N\NC(=O)c1ccc([N+](=O)[O-])cc1Cl, the “hERG current change (%, negative = inhibition) at 1uM” value was 7.02%. For O=C(O)c1ccc(CS(=O)(=O)c2ccc(Br)cc2)cc1, the “hERG current change (%, negative = inhibition) at 1uM” value was 13.9%. With Cc1cc(Br)cc(/C=N/NC(=O)c2ccc3c(c2)OCO3)c1O the “hERG current change (%, negative = inhibition) at 1uM” value was 11.4%. In the case of O=C1NC(c2cccc([N+](=O)[O-])c2)Oc2ccccc21 (centres unmarked), the “hERG current change (%, negative = inhibition) at 1uM” value is reported as 12.6%. In the case of O=C(CSc1nnc(-c2ccccc2)o1)NC1CCCCC1, the “hERG current change (%, negative = inhibition) at 1uM” value is reported as -3.22%. With CC1CCN(C(=O)Cn2nnc(-c3ccc(N)cc3)n2)CC1 the “hERG current change (%, negative = inhibition) at 1uM” value was 16.9%. With CCCn1cc(S(=O)(=O)c2ccc(C)cc2)c(=O)c2cc(OCC)ccc21 the “hERG current change (%, negative = inhibition) at 1uM” value was -5.33%. Nn1c(SCC(=O)NC2CCS(=O)(=O)C2)nc2scc(-c3ccccc3)c2c1=O (centres unmarked) was tested, and the “hERG current change (%, negative = inhibition) at 1uM” value was 7.57%. In the case of CCOc1cc(/C=C(\C#N)C(=O)Nc2cccc(C(=O)O)c2)ccc1OCc1ccc(Br)cc1, the “hERG current change (%, negative = inhibition) at 1uM” value is reported as 12.5%. For CCN(CC)CCCNC(=O)c1oc2ccc(S(=O)(=O)N3CC(C)CC(C)C3)cc2c1C (centres unmarked), the “hERG current change (%, negative = inhibition) at 1uM” value was 6.83%. Cn1c(NN)nc2sc3c(c2c1=O)CCC3 was tested, and the “hERG current change (%, negative = inhibition) at 1uM” value was 1.05%. For O=C(CN(CC(=O)N1CCOCC1)S(=O)(=O)c1ccc(Br)s1)N1CCOCC1, the “hERG current change (%, negative = inhibition) at 1uM” value was 12.5%. With Cc1ccc(/C=N/NC(=O)Cn2nccc2C)o1 the “hERG current change (%, negative = inhibition) at 1uM” value was 1.27%. CCC(COC)NCc1cn(-c2ccc(F)cc2F)nc1-c1ccccc1C (centres unmarked) was tested, and the “hERG current change (%, negative = inhibition) at 1uM” value was 3.79%. For C[C@]12CC[C@@H]3c4ccc(O)cc4[C@@H](O)C[C@H]3[C@@H]1CC[C@@H]2O, the “hERG current change (%, negative = inhibition) at 1uM” value was 15%. In the case of COc1ccc(Nc2cc(C(=O)NCCCN3CCOCC3)c3ccccc3n2)c(OC)c1, the “hERG current change (%, negative = inhibition) at 1uM” value is reported as -2.29%. For COCCN1CC(C(=O)NCCc2nc(C)c(C)s2)CCC1=O (centres unmarked), the “hERG current change (%, negative = inhibition) at 1uM” value was 20.5%. For C=CCN(CC=C)C(=O)c1ccc(OC2CCN(S(=O)(=O)N(C)C)CC2)cc1, the “hERG current change (%, negative = inhibition) at 1uM” value was 2.36%. O=C(N/N=C/c1sc(=O)n(-c2ccccc2)c1Cl)c1ccncc1 was tested, and the “hERG current change (%, negative = inhibition) at 1uM” value was 12.9%.
